In PubChem BioAssay (NCI) one finds GI50 and TGI data, which are given here for 76 molecules.

Where “and” joins values, the source holds several entries; their conditions need not be identical. Equal entries are not always repeated.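 Where inhibition never reached the appropriate level, the endpoint shown equals the highest concentration tested. Otherwise, values were interpolated linearly from a five-concentration, 48-hour dose response in 96-well plates. GI50 is the concentration that inhibits growth by half. TGI: total growth inhibition.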 A value given as a limit tells only on which side of the number the result lay.

The assay deals with NCI-H322M lung. Put plainly: growth of human tumour cells (NCI), 48 h.
On to `C=C1/C(=C\C=C2/CCC[C@]3(C)[C@@H]([C@H](C)CCCC(C)(C)O)CC[C@@H]23)C[C@@H](OC(=O)CBr)C[C@@H]1O`, for which the GI50 was 14.8 µM and the TGI amounted to 28.3 µM. The molecule `O=C1NCc2ccccc2S(=O)(=O)n2cccc21` had a TGI of over 100 µM. The same measure, in the same setting: the same measure for `Cc1ccc(NC2=CC(=O)C(NO)c3ccccc32)cc1` (configuration not stated): 23.5 µM.

For `Cc1ccc(-c2nc(C#N)c(S(=O)(=O)n3nc(C)cc3N)o2)cc1`, the GI50 was 19.1 µM and the TGI came to 42.7 µM.

On to `C/C=C\C(CC(=O)NCCC1CN(S(=O)(=O)c2ccc(C)cc2)c2ccccc21)CC(=O)OC` (configuration not stated), for which the TGI was over 100 µM. As for `Cc1cc(C(=C2C=CC(=Nc3ccccc3)C=C2)c2ccc(Nc3ccccc3)cc2)ccc1N`, the GI50 is 1.19 µM and the TGI was 2.48 µM.

For `Cc1cc2c(cc1Cl)S(=O)(=O)OC(c1ccc([N+](=O)[O-])cc1)=N2`, the TGI is over 100 µM. On the same count and under the same terms, the result for `COc1cc([C@@H]2c3cc4c(cc3[C@@H](OC(=O)c3ccc(N)cc3)C3COC(=O)[C@@H]32)OCO4)cc(OC)c1O` (some centres not stated) reads over 95 µM.

In turn, `CCC(C)C1=C(OC(C)=O)[N+]2([O-])Oc3ccc(-c4c(OC(C)=O)c(OC(C)=O)c(-c5ccc(OC(C)=O)cc5)c(OC(C)=O)c4OC(C)=O)cc3OC2(C(C)CC)C(=O)N1OC(C)=O` (configuration not stated) yielded a TGI of over 50 µM.

For the molecule `COc1ccc(C(=O)/C=C/c2cccc([N+](=O)[O-])c2)c(OC)c1`, the GI50 was 1.9 µM and the TGI was over 50 µM. `CCCCCCCCCCCCCCCCOCC(CC(F)(F)P(=O)(OCC)OCC)OC(C)=O` (configuration not stated) displayed a TGI of 30.9 µM. As to `O=c1cccccc1[O-].O=c1cccccc1[O-].[O]=[U+2]=[O]`, the TGI was found to be 96.9 µM. The molecule `COc1ccc2c(=O)cc(-c3ccncc3)oc2c1OC` registered a TGI of over 100 µM. On the same count and under the same terms, the result for `Cc1ccc(N2C(=O)CS/C2=C(\C#N)c2nc3ccccc3[nH]2)cc1` reads over 100 µM. Consider `O=C1C(N2CC2)=C(N2CC2)C(=O)C(N2CC2)=C1N1CC1`, for which the GI50 is 0.326 µM and the TGI amounted to 3.56 µM. For the molecule `CC(=O)C1=C(C)N(c2ccc(C)cc2)C2(O)C=CC(=O)C3C(=O)N(c4ccccc4)C(=O)C132` (configuration not stated), the TGI came out at 40 µM. With `CCSc1nc2cccc([N+](=O)[O-])c2n1CC`, the TGI is over 100 µM. With `C=CCC1(O)c2ccccc2C(=O)c2c(NCCN(CC(=O)OCC)CC(=O)OCC)cccc21` (configuration not stated), the GI50 was over 100 µM and the TGI was over 100 µM. On to `CCn1c(SCC(=O)NNC(=S)Nc2ccc([N+](=O)[O-])cc2)nc2ccccc2c1=O`, for which the TGI was over 100 µM.

Turning to `Cn1c2ccc3cc2c(=S)c2cc(ccc21)OCCOCCOCCOCCOCCO3`, the TGI is over 10 µM. In the case of `NC(=O)c1ccc(I)c(N=O)c1`, the GI50 is over 100 µM and the TGI was over 100 µM. The molecule `COc1ccc(-n2c(=O)[nH]n(C(C)=O)c2=O)cc1` yielded a TGI of over 100 µM. `O=C1c2ccccc2OP(=O)(OCC(F)(F)F)OC1(C(F)(F)F)C(F)(F)F` (configuration not stated): the TGI is over 100 µM. Regarding `Cc1cc(NCCN(C(C)C)C(C)C)nc(/N=C(\N)Nc2ccc(Cl)c(C(F)(F)F)c2)n1`, the GI50 is 1.33 µM and the TGI turned out to be 3.87 µM. Consider `O=C(O/C(=C(/N=Nc1ccccc1)c1ccccc1)c1ccccc1)c1ccccc1`, for which the TGI is over 100 µM. Consider `COc1ccc2c(c1)[nH]c1c(/C=C/c3ccccc3)nccc12`, for which the TGI was 36.4 µM. Still for that read-out and setting: the result for `CCCCc1ccc(Nc2nc(SC)c3[nH]cnc3n2)cc1` reads over 100 µM. As for `N#CCCN(CCCN(CCCN(C(=O)Nc1ccccc1)c1ccccc1)C(=O)Nc1ccccc1)C(=O)Nc1ccccc1`, the GI50 was over 100 µM and the TGI was over 100 µM. In turn, `COC(=O)C(C#CCCCCC#CC(NC(=O)OCc1ccccc1)(C(=O)OC)C(F)(F)F)(NC(=O)OCc1ccccc1)C(F)(F)F` (configuration not stated) gave a TGI of over 100 µM. For `COC(=O)C1CN=CN1CCc1ccccc1` (configuration not stated), the TGI was over 100 µM. The same measure, in the same setting: the result for `CC[C@]1(Cc2ccc(OC)c(OC)c2)C=[N+]([O-])O[C@H](OC2CCCC2(c2ccccc2)c2ccccc2)[C@@H]1OC(C)=O` (some centres not stated) reads 9.02 µM; that for `Clc1ccc(N=Nc2nc3ccccc3nc2N=Nc2ccc(Cl)cc2Cl)c(Cl)c1`, over 100 µM. Consider `COC1=CC(c2ccc[nH]2)=N/C1=C\c1[nH]c(C)c(C(=O)CCCCC(=O)NC(C)(C)C)c1C`, for which the GI50 is 4.23 µM and the TGI worked out at 19.6 µM. In the case of `O=C1NC2(CCCCCC2)C2CCCCCCC12O` (configuration not stated), the TGI is over 100 µM. Take `CCCN(CCCc1ccccc1)CCc1ccc2[nH]c(=S)[nH]c2c1`: the TGI was over 100 µM. For the molecule `CCN(CC)/C(Sc1ccccc1)=C(\C(Cl)=C(Cl)Cl)[N+](=O)[O-]`, the TGI was determined as 39.9 µM. On the same count and under the same terms, the result for `CCCCCCC(=O)O[C@H]1CC[C@H]2[C@@H]3CCC4C/C(=N/NC(=O)c5cccc6c(=O)c7ccccc7[nH]c56)C=C(C)[C@]4(C)[C@H]3CC[C@]12C` (some centres not stated) reads over 25 µM; that for `C=CCNC(=O)N(CCCC(NC(C)=O)C(=O)NCc1ccccc1)Cc1ccccc1` (configuration not stated), over 100 µM. `CC(=O)OCC1OC(c2nc3ccccc3s2)=CC(OC(C)=O)C1OC(C)=O` (configuration not stated): the TGI was over 100 µM. With `COC(=O)[C@@]12OC[C@]34[C@H]([C@@H](O)[C@@H]1O)[C@@]1(C)[C@H](O)C(=O)C=C(C)[C@@H]1C[C@H]3OC(=O)C(OC(C)=O)[C@@H]24` (some centres not stated), the GI50 was 0.14 µM and the TGI is 0.623 µM. For `COC(=O)CNS(=O)(=O)c1ccc(-c2c3nc(c(-c4ccc(S(=O)(=O)NCC(=O)OC)cc4)c4ccc([nH]4)c(-c4ccc(S(=O)(=O)NCC(=O)OC)cc4)c4nc(c(-c5ccc(S(=O)(=O)NCC(=O)OC)cc5)c5ccc2[nH]5)C=C4)C=C3)cc1`, the TGI was over 100 µM.

`COc1ccc(CC(=O)N2CCC3(C)CC(=O)CC=C23)cc1OC` (configuration not stated) yielded a TGI of over 100 µM. `CCOC(=O)Cn1c(=O)c2nc(SC)sc2n(CC)c1=S` returned a TGI of over 100 µM. `CCOc1ccc(/C(Cl)=C(\C=O)c2ccc(OC)c(OC)c2)cc1OCC` displayed a TGI of over 100 µM. For the molecule `O=c1cc(-c2ccccc2F)[nH]c2ccc(N3CCCC3)cc12`, the GI50 was 0.077 µM and the TGI was over 100 µM. Turning to `Cc1cc(Cl)ccc1Nc1nc(C(F)(F)F)ccc1C(=O)N/N=C/c1ccc(Cl)cc1`, the GI50 was 0.8 µM and the TGI amounted to 6.16 µM. The molecule `c1cc2n(n1)CCN2` displayed a TGI of over 10000 µM. In the case of `NC(=O)c1ccccc1Nc1ccc2nnc(-c3ccncc3)n2n1`, the GI50 was 3.63 µM and the TGI was determined as 14.9 µM. The molecule `CC(C)OCC1CC(CC(=O)Nc2nncs2)C(=O)O1` (configuration not stated) registered a TGI of over 100 µM. For the molecule `CCC(C)[C@H]1O[C@]2(C=C[C@@H]1C)C[C@@H]1C[C@@H](C/C=C(\C)[C@@H](OC3C[C@H](OC)C(O[C@H]4C[C@H](OC)[C@@H](O)[C@H](C)O4)[C@H](C)O3)[C@@H](C)/C=C/C=C3\CO[C@@H]4[C@H](O)C(C)=C[C@@H](C(=O)O1)[C@]34O)O2` (some centres not stated), the GI50 is 0.961 µM and the TGI worked out at 2 µM.

Turning to `COC1/C=C/C(C)C(C(C)C(OC)C(C)CCC(=O)C(C)C(C/C=C/N(C)C=O)OC)OC(=O)/C=C/C=C(\C)CC(OC)CC2=CC(=O)O[C@H](C2)C(C)C(OC)CC(OC)/C=C/C(C)C(OC)C1` (some centres not stated), the GI50 was 0.0141 µM. In turn, `COc1ccc2c3c1O[C@H]1C(OC)C=CC4C(C2)N(Cc2cccs2)CCC341` (some centres not stated) registered a TGI of over 100 µM. In the case of `C1=CC=C2NCCCCCCCNC3=CC=CC=CC3=NCCCCCCCN=C2C=C1`, the TGI was over 100 µM. Turning to `CC(=O)OC[C@]12CC[C@@H](C(=O)CBr)[C@@H]1[C@H]1CC[C@@H]3[C@@]4(C)CCCNC(C)(C)[C@@H]4CC[C@@]3(C)[C@]1(C)CC2`, the GI50 is 14.9 µM and the TGI came to 28.2 µM. Regarding `O=C(c1cccs1)N(C(=S)OC12CC3CC(CC(C3)C1)C2)c1ccccc1`, the TGI is over 100 µM.

With `CCOP(=O)(OCC)C(Nc1ccc(Br)cc1)c1cccc([N+](=O)[O-])c1` (configuration not stated), the TGI was 60.3 µM. In the case of `CCOC1=C2C(=O)OC(=O)C2C2CCCCC2=C1` (configuration not stated), the TGI was over 100 µM.

The molecule `COCC(O)Cn1ccnc1[N+](=O)[O-]` (configuration not stated) gave a TGI of over 100 µM. In the case of `O=C(Nc1cccc(-n2cc(-c3ccncc3)c(-c3ccc(Cl)c(O)c3)n2)c1)c1ccc(N2CCOCC2)c(C(F)(F)F)c1`, the GI50 is over 50 µM and the TGI is over 50 µM. `COc1ccc2c(c1)nnn1c3ncccc3c(N=O)c21`: the GI50 was 9.67 µM and 7.38 µM; the TGI is 46.9 µM and 38.3 µM. `O=C(OCN1C(=O)C2C3C=CC(C2C1=O)C1C2C(=O)N(COC(=O)C4CCCN4)C(=O)C2C31)C1CCCN1` (configuration not stated): the TGI was over 100 µM. Consider `O=C(NCCNCCCNC(=O)c1cc(-c2ccccc2)nc2ccccc12)c1cccc(O)c1O`, for which the TGI was over 100 µM. Molecule `OCC(O)C(Cl)CCl` (configuration not stated) returned a TGI of over 100 µM.

As to `O=C(Cn1c(=O)c(-c2ccccc2)nc2ccccc21)Nc1ccc(F)cc1`, the GI50 was 98.8 µM and the TGI was over 100 µM. The molecule `COc1cccc([C@H]2C/C(=N\NC(=O)C(=O)N[C@@H](C)c3ccccc3)c3ccccc3N2)c1` gave a TGI of over 100 µM. Still for that read-out and setting: the result for `COc1cccc2c1Cc1cc(-c3ccccc3)[n+](C)n1-2` reads 83.2 µM. As to `Cn1c(O)c(C=Nc2ccccc2[N+](=O)[O-])c(=O)n(C)c1=O`, the TGI was over 100 µM. Regarding `CNCCCn1c2c(c3ccc([N+](=O)[O-])cc3c1=O)C(=O)c1cc(OC)cnc1-2`, the GI50 was 0.162 µM and the TGI turned out to be 1.65 µM. For `CC(=O)O[C@H]1C(=O)[C@@]2(C)[C@H]([C@H](OC(=O)c3ccccc3)[C@]3(O)C[C@H](OC(=O)[C@H](O)[C@@H](NC(=O)c4cccc(N=[N+]=[N-])c4)c4ccccc4)C(C)=C1C3(C)C)[C@]1(OC(C)=O)CO[C@@H]1C[C@@H]2O`, the TGI is 0.213 µM.

The molecule `CC(=O)NNc1nc(C)c(C(=O)/C=C/c2ccccc2Cl)s1` came in with a TGI of over 100 µM. Take `CCn1cc(C(=O)N/N=C/c2ccccc2)c(=O)c2cc(F)c(N3CCNC(C)C3)c(F)c21` (configuration not stated): the GI50 is 1.78 µM and the TGI came to 3.17 µM. `Cc1cc(NCCCCCCNc2cc(C)nc3cc(N(C)C)ccc23)c2ccc(N(C)C)cc2n1` yielded a TGI of over 100 µM. `Clc1cc(Cl)cc(C=NC23CC4CC(CC(C4)C2)C3)c1` gave a TGI of over 10 µM.

Take `N#Cc1c(-c2ccc([N+](=O)[O-])cc2)c(C#N)c(=O)n(NS(=O)(=O)c2ccccc2)c1-c1ccccc1`: the TGI is over 100 µM. `Nc1nc(SCc2ccc([N+](=O)[O-])cc2)nc2c1ncn2C1OC(CO)C(O)C1O` (configuration not stated) registered a TGI of over 100 µM.

The molecule `C=CCC(N(C)C(=O)[C@H](Cc1ccccc1)NC(=O)OCc1ccccc1)P(=O)(Oc1ccccc1)Oc1ccccc1` (some centres not stated) registered a TGI of over 100 µM.
